Data: the RNAGym collection of RNA variant scans (doi:10.1073/pnas.2313332121)
Variants at the floor of the assay are shown more often than the library holds them.

B1: TPR 5TU (parent)
chain: GGAUCUUCUCGAUCUAACAAAAAAGACAAAUCUGCCACAAAGCUUGAGAGCAUCUUCGGAUGCAGAGGCGGCAGCCUUCGGUGGCGCGAUAGCGCCAACGUUCUCAACUAUGACACGCAAAACGCGUGCUCCGUUGAAUGGAGUUUAUCAUG

Variants of: B1
Test: polymerase ribozyme fitness, log enrichment relative to wild type (log ratio); higher = more active; in vitro selection for triplet polymerase activity
How it was run: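 To select mutant libraries of each subunit of a heterodimeric triplet polymerase ribozyme, built by PCR and transcribed, each was annealed with a biotinylated primer, partner subunit and triplets, then incubated frozen at −7 °C. Extended constructs were gel-excised, captured on streptavidin beads and amplified by RT-PCR, in one round carried out in triplicate. Illumina sequencing of input and output libraries kept genotypes with ≥10 input reads and ≥1 read per output. Fitness is the base-2 logarithm of genotype enrichment relative to wild-type enrichment, from inverse-variance-weighted replicate averages.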

Polymerase ribozyme fitness (log ratio), ≤ -4.2:
GGAUCUUCUCGAUCUAACAAAAAAGACAAAUCUGCCACAAAGCUUGAGAGCAUCUUCGGAUGCAGAGGCGGCAGCCUUCGGUGGCGCGAUAGCGCCAACAUUCUCAACUAUGACACGCAAAACGCGUGCUCCGUUGAAUGGAGUUUAUAAUG
GGAUCUUCUCGAUCUAACAAAAAAGACAAAUCUGCCACAAAGCUUGAGAGCAUCUUCGGAUGCAGAGGCGGCAGCCUUCGGUGGCGCGAUAGCGCCAACUUUCUCAACUAUGACAGGCAAAACGCGUGCUCCGUUGAAUGGAGUGUAUCAUA
GGAUCUUCUCGAUCUAACAAAAAAGACAAAUCUGCCACAAAGCUUGAGAGCAUCUUCGGAUGCAGAGGCGGCAGCCUUCGGUGGCGCGAUAGCGCCAACGAUCUCAACUCUGACACGCGAAACGCGUGCUCCGUUGAAUGGAGUUUAUCAUG
GGAUCUUCUCGAUCUAACAAAAAAGACAAAUCUGCCACAAAGCUUGAGAGCAUCUUCGGAUGCAGAGGCGGCAGCCUUCGGUGGCGCGAUAGCGCCAACGCUCUCAACUAUGACACGCAAAACGCGUGCUCCGUUGAAUGGAGUUUAUCACG
GGAUCUUCUCGAUCUAACAAAAAAGACAAAUCUGCCACAAAGCUUGAGAGCAUCUUCGGAUGCAGAGGCGGCAGCCUUCGGUGGCGCGAUAGCGCCAACGUUGUCAUCUAUGACCCGCAAAGCGCGUGCUCAGUUGAAUGGACUUUAUCAUG
GGAUCUUCUCGAUCUAACAAAAAAGACAAAUCUGCCACAAAGCUUGAGAGCAUCUUCGGAUGCAGAGGCGGCAGCCUUCGGUGGCGCGAUAGCGCCAACGUUCGCAACUAUGACACGCAAAACGCGUGCUCCGUUGAAUGGCGUUUAUCCUG
GGAUCUUCUCGAUCUAACAAAAAAGACAAAUCUGCCACAAAGCUUGAGAGCAUCUUCGGAUGCAGAGGCGGCAGCCUUCGGUGGCGCGAUAGCGCCAACGUUCUGAACUAUCACACGCAAAACGCGUGCUCCGAUGAAUGGAGUUUCUCAUG
GGAUCUUCUCGAUCUAACAAAAAAGACAAAUCUGCCACAAAGCUUGAGAGCAUCUUCGGAUGCAGAGGCGGCAGCCUUCGGUGGCGCGAUAGCGCCAACGUUCUGAACUAUGACACUCAAAACGCGUUCUCCGUUGAAUGGAGUUUAUCAUG
GGAUCUUCUCGAUCUAACAAAAAAGACAAAUCUGCCACAAAGCUUGAGAGCAUCUUCGGAUGCAGAGGCGGCAGCCUUCGGUGGCGCGAUAGCGCCAACGUUCUCGACUAUGACACGCAAAACGCGUGCUCCGUUGAAUGCAGUUUAUCGUG
GGAUCUUCUCGAUCUAACAAAAAAGACAAAUCUGCCACAAAGCUUGAGAGCAUCUUCGGAUGCAGAGGCGGCAGCCUUCGGUGGCGCGAUAGCGCCAACGUUCUCACCUAUGACACGCAAGACGCAUGCUCGGUCGAAUGGAGUUUAUCAUG
GGAUCUUCUCGAUCUAACAAAAAAGACAAAUCUGCCACAAAGCUUGAGAGCAUCUUCGGAUGCAGAGGCGGCAGCCUUCGGUGGCGCGAUAGCGCCAACGUUCUCACCUAUGACACGCAAAACGCGUGCUCCGUUGAAUGGGGUUUAUCAUG
GGAUCUUCUCGAUCUAACAAAAAAGACAAAUCUGCCACAAAGCUUGAGAGCAUCUUCGGAUGCAGAGGCGGCAGCCUUCGGUGGCGCGAUAGCGCCAACGUUCUCACCUAUGACACGCAAAACGGGUGCUCCGUUGAAUGGAGUUUAUCAUG
GGAUCUUCUCGAUCUAACAAAAAAGACAAAUCUGCCACAAAGCUUGAGAGCAUCUUCGGAUGCAGAGGCGGCAGCCUUCGGUGGCGCGAUAGCGCCAACGUUCUCACCUAUGACACGCAAAACGCGUGCUGCGUUGAAUGGAGUUUAUCAUG
GGAUCUUCUCGAUCUAACAAAAAAGACAAAUCUGCCACAAAGCUUGAGAGCAUCUUCGGAUGCAGAGGCGGCAGCCUUCGGUGGCGCGAUAGCGCCAACGUUCUCAUCUAUGACACGAAAAACGCGUGCUCCGUUGAAUGGAGUGUAGCGUG
GGAUCUUCUCGAUCUAACAAAAAAGACAAAUCUGCCACAAAGCUUGAGAGCAUCUUCGGAUGCAGAGGCGGCAGCCUUCGGUGGCGCGAUAGCGCCAACGUUCUCAUCUAGGACACGCAAUACGCGUGCUCCGCUGAAUGGAGUUUAUCAUG
GGAUCUUCUCGAUCUAACAAAAAAGACAAAUCUGCCACAAAGCUUGAGAGCAUCUUCGGAUGCAGAGGCGGCAGCCUUCGGUGGCGCGAUAGCGCCAACGUUCUCAUCUAUGACACGCAAAACGCGUGCGCCGUUGAAUGGAGUUUAACAUG
GGAUCUUCUCGAUCUAACAAAAAAGACAAAUCUGCCACAAAGCUUGAGAGCAUCUUCGGAUGCAGAGGCGGCAGCCUUCGGUGGCGCGAUAGCGCCAACGUUCUCAAAUAUGACACGCAAAACGCGUGCUCCGUUGAAUGGAGUUUAUCAUG
GGAUCUUCUCGAUCUAACAAAAAAGACAAAUCUGCCACAAAGCUUGAGAGCAUCUUCGGAUGCAGAGGCGGCAGCCUUCGGUGGCGCGAUAGCGCCAACGUUCUCAAAUAUGACAAGCAAAACGCGUGCUCCGUUGAAUGGAGUUUAUCAUG
GGAUCUUCUCGAUCUAACAAAAAAGACAAAUCUGCCACAAAGCUUGAGAGCAUCUUCGGAUGCAGAGGCGGCAGCCUUCGGUGGCGCGAUAGCGCCAACGUUCUCAAGUAUGACACGCAAAACGCGUGCUCCGUUGAAUGGAGUUUAUCAUG
GGAUCUUCUCGAUCUAACAAAAAAGACAAAUCUGCCACAAAGCUUGAGAGCAUCUUCGGAUGCAGAGGCGGCAGCCUUCGGUGGCGCGAUAGCGCCAACGUUCUCAAGUAUGACACGCAGAACGCGUGCUCCGUUGAAUGGAGUUUAUCAUG
GGAUCUUCUCGAUCUAACAAAAAAGACAAAUCUGCCACAAAGCUUGAGAGCAUCUUCGGAUGCAGAGGCGGCAGCCUUCGGUGGCGCGAUAGCGCCAACGUUCUCAAGUAUGACACGCAAAACGCGUUCUCCGUUGAAUGGAGUUUAUCAUG
GGAUCUUCUCGAUCUAACAAAAAAGACAAAUCUGCCACAAAGCUUGAGAGCAUCUUCGGAUGCAGAGGCGGCAGCCUUCGGUGGCGCGAUAGCGCCAACGUUCUCAACUACGACCCGCAAAACGCGUGCUCCGUUGAAUGGAGUUUAUCAUG
GGAUCUUCUCGAUCUAACAAAAAAGACAAAUCUGCCACAAAGCUUGAGAGCAUCUUCGGAUGCAGAGGCGGCAGCCUUCGGUGGCGCGAUAGCGCCAACGUUCUCAACUAGGACACGCAAAACGCGUGCUCCGUUGAAUGGAGUUUAUCGUA
GGAUCUUCUCGAUCUAACAAAAAAGACAAAUCUGCCACAAAGCUUGAGAGCAUCUUCGGAUGCAGAGGCGGCAGCCUUCGGUGGCGCGAUAGCGCCAACGUUCUCAACUAUGACACUCAAAACGCGUGCUCCGUUGAAAGGAGUUUAUCAUG
GGAUCUUCUCGAUCUAACAAAAAAGACAAAUCUGCCACAAAGCUUGAGAGCAUCUUCGGAUGCAGAGGCGGCAGCCUUCGGUGGCGCGAUAGCGCCAACGUUCUCAACUAUGACACGCAAAAGGCGUGCUCCGUUGAAUAGAGUUUAUCGUG
GGAUCUUCUCGAUCUAACAAAAAAGACAAAUCUGCCACAAAGCUUGAGAGCAUCUUCGGAUGCAGAGGCGGCAGCCUUCGGUGGCGCGAUAGCGCCAACGUUCUCAACUAUGACACGCAAAAUGCGUGCUCCGUUGAAUGGAGUUUCUCCUG
GGAUCUUCUCGAUCUAACAAAAAAGACAAAUCUGCCACAAAGCUUGAGAGCAUCUUCGGAUGCAGAGGCGGCAGCCUUCGGUGGCGCGAUAGCGCCAACGUUCUCAACUAUGACACGCAAAAUGCGUGCUCCAUUGAAUGGAGUUUAUCAUG
GGAUCUUCUCGAUCUAACAAAAAAGACAAAUCUGCCACAAAGCUUGAGAGCAUCUUCGGAUGCAGAGGCGGCAGCCUUCGGUGGCGCGAUAGCGCCAACGUUCUCAACUAUGACACGCAAAACGCGUGGUCCGUUGAAUGGAGUUGAUCAUG
GGAUCUUCUCGAUCUAACAAAAAAGACAAAUCUGCCACAAAGCUUGAGAGCAUCUUCGGAUGCAGAGGCGGCAGCCUUCGGUGGCGCGAUAGCGCCAACGUUCUCAACUAUGACACGCAAAACGCGUGCUCCAUUGAAUGGAGAUUCUCAUG
GGAUCUUCUCGAUCUAACAAAAAAGACAAAUCUGCCACAAAGCUUGAGAGCAUCUUCGGAUGCAGAGGCGGCAGCCUUCGGUGGCGCGAUAGCGCCAACGUUCUCAACUAUGACACGCAAAACGCGUGCUCCUUUGAAUUGAGCUUAUCAUG
GGAUCUUCUCGAUCUAACAAAAAAGACAAAUCUGCCACAAAGCUUGAGAGCAUCUUCGGAUGCAGAGGCGGCAGCCUUCGGUGGCGCGAUAGCGCCAACGUUCUCAACUAUGACACGCAAAACGCGUGCUCCUUUGAAUGGAGUUGAUCAUG
GGAUCUUCUCGAUCUAACAAAAAAGACAAAUCUGCCACAAAGCUUGAGAGCAUCUUCGGAUGCAGAGGCGGCAGCCUUCGGUGGCGCGAUAGCGCCAACGUUCUCAACUAUGACACGCAAAACGCGUGCUCCGUUCAAUGGAGGUUAUUAUG
GGAUCUUCUCGAUCUAACAAAAAAGACAAAUCUGCCACAAAGCUUGAGAGCAUCUUCGGAUGCAGAGGCGGCAGCCUUCGGUGGCGCGAUAGCGCCAACGUUCUCAACUAUGACACGCAAAACGCGUGCUCCGUUGCAAGGAGUUUAUCAUG
GGAUCUUCUCGAUCUAACAAAAAAGACAAAUCUGCCACAAAGCUUGAGAGCAUCUUCGGAUGCAGAGGCGGCAGCCUUCGGUGGCGCGAUAGCGCCAACGUUCUCAACUAUGACACGCAAAACGCGUGCUCCGUUGAAAGGAGUUUAUCGUG
GGAUCUUCUCGAUCUAACAAAAAAGACAAAUCUGCCACAAAGCUUGAGAGCAUCUUCGGAUGCAGAGGCGGCAGCCUUCGGUGGCGCGAUAGCGCCAACGUUCUCAACUAUGACACGCAAAACGCGUGCUCCGUUGAAUGCAGUUUAUCCUG
GGAUCUUCUCGAUCUAACAAAAAAGACAAAUCUGCCACAAAGCUUGAGAGCAUCUUCGGAUGCAGAGGCGGCAGCCUUCGGUGGCGCGAUAGCGCCAACGUUCUCAACUAUGACACGCAAAACGCGUGCUCCGUUGAAUGGCGUUUAUCAAG
GGAUCUUCUCGAUCUAACAAAAAAGACAAAUCUGCCACAAAGCUUGAGAGCAUCUUCGGAUGCAGAGGCGGCAGCCUUCGGUGGCGCGAUAGCGCCAACGUUCUCAACUAUGACACGCAAAACGCGUGCUCCGUUGAAUGGACUUUAUGAUG
